{"source": "a collection of fitness landscapes (doi:10.1016/j.celrep.2020.107928)", "parents": {"B1": {"name": "Caulobacter ParB omega fusion; a variant is named by its letters at X, in order, B8GW30 (parent)", "chain": "MESVVVGEPGMSEGRRGLGRGLSALLGEVDAAPAQAPGEQLGGSREAPIEILQRNPDQPRRTFREEDLEDLSNSIREKGVLQPILVRPSPDTAGEYQIVAGERAWRAAQRAGLKTVPIMVRELDDLAVLEIGIIENVQRADLNVLEEALSYKVLMEKFERTQENIAQTIGKSXSHVANXMRLLXLPDEVQSYLVSGELTAXHARAIAAAADPVALAKQIIEGGLSVRETEALARKAPNLSAGKSKGGRPPRVKDTDTQALESDLSSVLGLDVSIDHRGSTGTLTITYATLEQLDDLCNRLTRGI"}}, "note": "The full ranking holds about 81,000 sequences; the median of “one-hybrid fitness for binding parS DNA” is about -0.17, and the highest 2% start at about 0.51. This is one part of the list.", "data": [{"variants_of": "B1", "test": "one-hybrid fitness for binding parS DNA (scaled: cognate 1, non-cognate 0); higher = stronger binding", "conditions": "with parS DNA site", "method_in_brief": "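The reporter was HIS3, with the binding site 19 bp from the promoter, in E. coli USO used for bacterial one-hybrid selection of Caulobacter ParB libraries with four specificity codons randomised. Growth was on M9 lacking histidine, with 0.1 mM IPTG and 5 mM 3-AT, for 48 hours at 37°C. Illumina sequencing covered plasmids before and after selection; three replicate libraries were pooled and variants with under 10 reads dropped. A fitness score is the log change in variant-to-wild-type read ratio, rescaled to the cognate and non-cognate references.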", "values": [{"variant": "TWKR", "one-hybrid fitness for binding parS DNA": "≤ 0.2"}, {"variant": "DRIT", "one-hybrid fitness for binding parS DNA": "≤ 0.2"}, {"variant": "CIRS", "one-hybrid fitness for binding parS DNA": "≤ 0.2"}, {"variant": "STLM", "one-hybrid fitness for binding parS DNA": "≤ 0.2"}, {"variant": "RSKF", "one-hybrid fitness for binding parS DNA": 0.35}, {"variant": "GCWW", "one-hybrid fitness for binding parS DNA": 0.205}, {"variant": "AATW", "one-hybrid fitness for binding parS DNA": "≤ 0.2"}, {"variant": "SRER", "one-hybrid fitness for binding parS DNA": "≤ 0.2"}, {"variant": "KYGV", "one-hybrid fitness for binding parS DNA": "≤ 0.2"}, {"variant": "TDPT", "one-hybrid fitness for binding parS DNA": "≤ 0.2"}, {"variant": "SALD", "one-hybrid fitness for binding parS DNA": "≤ 0.2"}, {"variant": "IVAK", "one-hybrid fitness for binding parS DNA": "≤ 0.2"}, {"variant": "RQGT", "one-hybrid fitness for binding parS DNA": 0.847}, {"variant": "VKYP", "one-hybrid fitness for binding parS DNA": "≤ 0.2"}, {"variant": "HLTG", "one-hybrid fitness for binding parS DNA": "≤ 0.2"}, {"variant": "CPMT", "one-hybrid fitness for binding parS DNA": "≤ 0.2"}, {"variant": "NKTE", "one-hybrid fitness for binding parS DNA": "≤ 0.2"}, {"variant": "THLH", "one-hybrid fitness for binding parS DNA": "≤ 0.2"}, {"variant": "TEAS", "one-hybrid fitness for binding parS DNA": "≤ 0.2"}, {"variant": "NTSP", "one-hybrid fitness for binding parS DNA": "≤ 0.2"}, {"variant": "CPVL", "one-hybrid fitness for binding parS DNA": "≤ 0.2"}, {"variant": "YAKM", "one-hybrid fitness for binding parS DNA": "≤ 0.2"}, {"variant": "SCNE", "one-hybrid fitness for binding parS DNA": "≤ 0.2"}, {"variant": "TFDG", "one-hybrid fitness for binding parS DNA": "≤ 0.2"}, {"variant": "AWRS", "one-hybrid fitness for binding parS DNA": "≤ 0.2"}, {"variant": "FLAT", "one-hybrid fitness for binding parS DNA": "≤ 0.2"}, {"variant": "RSRT", "one-hybrid fitness for binding parS DNA": 0.832}, {"variant": "CFDR", "one-hybrid fitness for binding parS DNA": "≤ 0.2"}, {"variant": "DTYS", "one-hybrid fitness for binding parS DNA": "≤ 0.2"}, {"variant": "VRNM", "one-hybrid fitness for binding parS DNA": "≤ 0.2"}, {"variant": "SLDR", "one-hybrid fitness for binding parS DNA": "≤ 0.2"}, {"variant": "TFMM", "one-hybrid fitness for binding parS DNA": "≤ 0.2"}, {"variant": "RQEN", "one-hybrid fitness for binding parS DNA": 0.379}, {"variant": "VQHY", "one-hybrid fitness for binding parS DNA": "≤ 0.2"}, {"variant": "CHHS", "one-hybrid fitness for binding parS DNA": "≤ 0.2"}, {"variant": "DLVG", "one-hybrid fitness for binding parS DNA": "≤ 0.2"}, {"variant": "CGSA", "one-hybrid fitness for binding parS DNA": "≤ 0.2"}, {"variant": "VPSL", "one-hybrid fitness for binding parS DNA": "≤ 0.2"}, {"variant": "YLIC", "one-hybrid fitness for binding parS DNA": "≤ 0.2"}, {"variant": "SFNI", "one-hybrid fitness for binding parS DNA": "≤ 0.2"}, {"variant": "HVRG", "one-hybrid fitness for binding parS DNA": "≤ 0.2"}, {"variant": "LKHK", "one-hybrid fitness for binding parS DNA": "≤ 0.2"}, {"variant": "WSYA", "one-hybrid fitness for binding parS DNA": "≤ 0.2"}, {"variant": "QTWI", "one-hybrid fitness for binding parS DNA": "≤ 0.2"}, {"variant": "PRWR", "one-hybrid fitness for binding parS DNA": "≤ 0.2"}, {"variant": "VLIC", "one-hybrid fitness for binding parS DNA": "≤ 0.2"}, {"variant": "RVRR", "one-hybrid fitness for binding parS DNA": "≤ 0.2"}, {"variant": "RQCE", "one-hybrid fitness for binding parS DNA": "≤ 0.2"}, {"variant": "FHCT", "one-hybrid fitness for binding parS DNA": "≤ 0.2"}, {"variant": "EDQG", "one-hybrid fitness for binding parS DNA": "≤ 0.2"}, {"variant": "SSAW", "one-hybrid fitness for binding parS DNA": "≤ 0.2"}, {"variant": "HGKF", "one-hybrid fitness for binding parS DNA": "≤ 0.2"}, {"variant": "KSVT", "one-hybrid fitness for binding parS DNA": "≤ 0.2"}, {"variant": "AFEG", "one-hybrid fitness for binding parS DNA": "≤ 0.2"}, {"variant": "WYCV", "one-hybrid fitness for binding parS DNA": "≤ 0.2"}, {"variant": "QVMD", "one-hybrid fitness for binding parS DNA": "≤ 0.2"}, {"variant": "NWPE", "one-hybrid fitness for binding parS DNA": "≤ 0.2"}, {"variant": "HTTR", "one-hybrid fitness for binding parS DNA": "≤ 0.2"}, {"variant": "MAVT", "one-hybrid fitness for binding parS DNA": "≤ 0.2"}, {"variant": "KWHL", "one-hybrid fitness for binding parS DNA": "≤ 0.2"}, {"variant": "RGQT", "one-hybrid fitness for binding parS DNA": 0.58}, {"variant": "EATA", "one-hybrid fitness for binding parS DNA": "≤ 0.2"}, {"variant": "PSAA", "one-hybrid fitness for binding parS DNA": "≤ 0.2"}, {"variant": "ACLT", "one-hybrid fitness for binding parS DNA": "≤ 0.2"}, {"variant": "NATW", "one-hybrid fitness for binding parS DNA": "≤ 0.2"}, {"variant": "MLDV", "one-hybrid fitness for binding parS DNA": "≤ 0.2"}, {"variant": "MAKN", "one-hybrid fitness for binding parS DNA": "≤ 0.2"}, {"variant": "SITY", "one-hybrid fitness for binding parS DNA": "≤ 0.2"}, {"variant": "IHGP", "one-hybrid fitness for binding parS DNA": "≤ 0.2"}, {"variant": "EGKQ", "one-hybrid fitness for binding parS DNA": "≤ 0.2"}, {"variant": "PKLY", "one-hybrid fitness for binding parS DNA": "≤ 0.2"}, {"variant": "RIKC", "one-hybrid fitness for binding parS DNA": 0.805}, {"variant": "YFHS", "one-hybrid fitness for binding parS DNA": "≤ 0.2"}, {"variant": "ATFG", "one-hybrid fitness for binding parS DNA": "≤ 0.2"}, {"variant": "IHRS", "one-hybrid fitness for binding parS DNA": "≤ 0.2"}, {"variant": "MWKC", "one-hybrid fitness for binding parS DNA": "≤ 0.2"}, {"variant": "EVEG", "one-hybrid fitness for binding parS DNA": "≤ 0.2"}, {"variant": "APQM", "one-hybrid fitness for binding parS DNA": "≤ 0.2"}, {"variant": "TKDN", "one-hybrid fitness for binding parS DNA": "≤ 0.2"}, {"variant": "SAFH", "one-hybrid fitness for binding parS DNA": "≤ 0.2"}, {"variant": "DLKR", "one-hybrid fitness for binding parS DNA": "≤ 0.2"}, {"variant": "RIMM", "one-hybrid fitness for binding parS DNA": 0.377}, {"variant": "MVNS", "one-hybrid fitness for binding parS DNA": "≤ 0.2"}, {"variant": "RLPT", "one-hybrid fitness for binding parS DNA": 0.58}, {"variant": "DGYT", "one-hybrid fitness for binding parS DNA": "≤ 0.2"}, {"variant": "PLQI", "one-hybrid fitness for binding parS DNA": "≤ 0.2"}, {"variant": "SNPF", "one-hybrid fitness for binding parS DNA": "≤ 0.2"}, {"variant": "IRCS", "one-hybrid fitness for binding parS DNA": "≤ 0.2"}, {"variant": "PVNG", "one-hybrid fitness for binding parS DNA": "≤ 0.2"}, {"variant": "QHDY", "one-hybrid fitness for binding parS DNA": "≤ 0.2"}, {"variant": "SIGV", "one-hybrid fitness for binding parS DNA": "≤ 0.2"}, {"variant": "TATE", "one-hybrid fitness for binding parS DNA": "≤ 0.2"}, {"variant": "KPTT", "one-hybrid fitness for binding parS DNA": "≤ 0.2"}, {"variant": "KCSR", "one-hybrid fitness for binding parS DNA": "≤ 0.2"}, {"variant": "QGEG", "one-hybrid fitness for binding parS DNA": "≤ 0.2"}, {"variant": "VIHG", "one-hybrid fitness for binding parS DNA": "≤ 0.2"}, {"variant": "ARAK", "one-hybrid fitness for binding parS DNA": "≤ 0.2"}, {"variant": "TSQP", "one-hybrid fitness for binding parS DNA": "≤ 0.2"}, {"variant": "ETSC", "one-hybrid fitness for binding parS DNA": "≤ 0.2"}, {"variant": "AESF", "one-hybrid fitness for binding parS DNA": "≤ 0.2"}, {"variant": "GPLW", "one-hybrid fitness for binding parS DNA": "≤ 0.2"}, {"variant": "TIKW", "one-hybrid fitness for binding parS DNA": "≤ 0.2"}, {"variant": "TRVA", "one-hybrid fitness for binding parS DNA": "≤ 0.2"}, {"variant": "KLNL", "one-hybrid fitness for binding parS DNA": "≤ 0.2"}, {"variant": "LIWC", "one-hybrid fitness for binding parS DNA": "≤ 0.2"}, {"variant": "KIKC", "one-hybrid fitness for binding parS DNA": "≤ 0.2"}, {"variant": "CHER", "one-hybrid fitness for binding parS DNA": "≤ 0.2"}, {"variant": "CKAE", "one-hybrid fitness for binding parS DNA": "≤ 0.2"}, {"variant": "WLLH", "one-hybrid fitness for binding parS DNA": "≤ 0.2"}, {"variant": "AFWW", "one-hybrid fitness for binding parS DNA": "≤ 0.2"}, {"variant": "QVTP", "one-hybrid fitness for binding parS DNA": "≤ 0.2"}, {"variant": "STFC", "one-hybrid fitness for binding parS DNA": "≤ 0.2"}, {"variant": "RWGI", "one-hybrid fitness for binding parS DNA": "≤ 0.2"}, {"variant": "GQPM", "one-hybrid fitness for binding parS DNA": "≤ 0.2"}, {"variant": "WAFR", "one-hybrid fitness for binding parS DNA": "≤ 0.2"}, {"variant": "PTKA", "one-hybrid fitness for binding parS DNA": "≤ 0.2"}, {"variant": "WACC", "one-hybrid fitness for binding parS DNA": "≤ 0.2"}, {"variant": "NVDM", "one-hybrid fitness for binding parS DNA": "≤ 0.2"}, {"variant": "TQVD", "one-hybrid fitness for binding parS DNA": "≤ 0.2"}, {"variant": "VCSS", "one-hybrid fitness for binding parS DNA": "≤ 0.2"}, {"variant": "WRHV", "one-hybrid fitness for binding parS DNA": "≤ 0.2"}, {"variant": "TQWR", "one-hybrid fitness for binding parS DNA": "≤ 0.2"}, {"variant": "YLQG", "one-hybrid fitness for binding parS DNA": "≤ 0.2"}, {"variant": "SAVD", "one-hybrid fitness for binding parS DNA": "≤ 0.2"}, {"variant": "LCFT", "one-hybrid fitness for binding parS DNA": "≤ 0.2"}, {"variant": "VQSV", "one-hybrid fitness for binding parS DNA": "≤ 0.2"}, {"variant": "ACLI", "one-hybrid fitness for binding parS DNA": "≤ 0.2"}, {"variant": "SLIT", "one-hybrid fitness for binding parS DNA": "≤ 0.2"}, {"variant": "WRKR", "one-hybrid fitness for binding parS DNA": "≤ 0.2"}, {"variant": "TNYW", "one-hybrid fitness for binding parS DNA": "≤ 0.2"}, {"variant": "TWPR", "one-hybrid fitness for binding parS DNA": "≤ 0.2"}, {"variant": "CYTV", "one-hybrid fitness for binding parS DNA": "≤ 0.2"}, {"variant": "HSCT", "one-hybrid fitness for binding parS DNA": "≤ 0.2"}, {"variant": "RVMH", "one-hybrid fitness for binding parS DNA": "≤ 0.2"}, {"variant": "DHNE", "one-hybrid fitness for binding parS DNA": "≤ 0.2"}, {"variant": "QPIC", "one-hybrid fitness for binding parS DNA": "≤ 0.2"}, {"variant": "GLTA", "one-hybrid fitness for binding parS DNA": "≤ 0.2"}, {"variant": "QGCC", "one-hybrid fitness for binding parS DNA": "≤ 0.2"}, {"variant": "AVYC", "one-hybrid fitness for binding parS DNA": "≤ 0.2"}, {"variant": "YNAK", "one-hybrid fitness for binding parS DNA": "≤ 0.2"}, {"variant": "QRIY", "one-hybrid fitness for binding parS DNA": "≤ 0.2"}, {"variant": "NITM", "one-hybrid fitness for binding parS DNA": "≤ 0.2"}, {"variant": "KPKK", "one-hybrid fitness for binding parS DNA": "≤ 0.2"}, {"variant": "KCMS", "one-hybrid fitness for binding parS DNA": "≤ 0.2"}, {"variant": "HTIC", "one-hybrid fitness for binding parS DNA": "≤ 0.2"}, {"variant": "VPFT", "one-hybrid fitness for binding parS DNA": "≤ 0.2"}, {"variant": "CKKL", "one-hybrid fitness for binding parS DNA": "≤ 0.2"}, {"variant": "MMIR", "one-hybrid fitness for binding parS DNA": "≤ 0.2"}, {"variant": "INLT", "one-hybrid fitness for binding parS DNA": "≤ 0.2"}, {"variant": "RVCT", "one-hybrid fitness for binding parS DNA": 0.926}, {"variant": "REVN", "one-hybrid fitness for binding parS DNA": "≤ 0.2"}, {"variant": "AAIL", "one-hybrid fitness for binding parS DNA": "≤ 0.2"}, {"variant": "DCAT", "one-hybrid fitness for binding parS DNA": "≤ 0.2"}]}]}
